Experimental data from the supplement of paper PMC11417369.
Some of the results follow.

The sequences below were run on PF3D7_0420300 AP2 domain 1 (GST-tagged) (assay: gcPBM binding intensity (ln(normalized median fluorescence intensity)); higher = stronger DNA binding).
Outline: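 The highest Masliner-normalised natural-log median intensity across replicate spots of either probe orientation is reported as binding intensity. GST-tagged P. falciparum DNA-binding domains expressed in E. coli were applied for 1 h to an Agilent 4 × 180k array of primer-extended double-stranded 36-bp intergenic genomic probes plus negative controls, and bound protein was detected with Alexa488 anti-GST antibody and scanned at 488 nm.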

In order of rising “gcPBM binding intensity (ln)” value:
1. TCCTTCGAAACTAAAATTCATTTAAAATATTGATAT [CACACA_negctrl_site369]  8.83
2. GTGTACTTTTAAATAGTGCATTTTACAATAATAAAA [GTGCAC_site9653]  8.84
3. TTTTTTTTAGTATGAACACACATATAGATTATAAAA [CACACA_site7391]  8.94
4. AGATATCTTGTGAAATAAAAAAAATAATTGCTTATA [CACACA_negctrl_site798]  8.94
5. ATATTATATTATTAATGTACATATATATAATTTTAA [XGTACX_site4974]  9
6. TAGGTCCTCATTTTATGTACATAAAGAAATATGATT [XGTACX_site4138]  9.08
7. GTAATAAAATGACATACATGCATTACAATTATGTAA [TGCATGCA_site220]  9.1
8. GATTAATTTAAAAAATGTACATTTTATTGTATAACC [XGTACX_site5539]  9.11
9. AAGAATATAATCTTCACACATATATATATATATATA [CACACA_site5927]  9.13
10. ACCTAATATTATTAAACATGCACATTTGCATAAATA [TGCATGCA_site870]  9.13
11. ATATAAACATTTAGTAATCCATATAGGTACTACTGA [CACACA_negctrl_site1249]  9.15
12. ATATATGCTAATATATGTACTGATTATATCTCTTCA [XGTACX_site7156]  9.16
13. TAATTAAATATTTCAGTGCATTATTTTATGATCCAT [GTGCAC_site9456]  9.19
14. GTATAATATTCATATTCACACATTAAAATATATTTA [CACACA_site4879]  9.22
15. ATTAATTTAATTTGAATTATTTTATTATATTATTAT [XGTACX_negctrl_site10]  9.23
16. TAAAAATATATTATATGTACGTATAACAATGTATGA [XGTACX_site8606]  9.24
17. TATAGATGTGGTTTATGTACATACTATAAAAAATCA [XGTACX_site1400]  9.25
18. AGATGAACTAAAAAGGTGCTAAATATGTGACCACTG [GTGCAC_site9406]  9.26
19. TCTTATCCATATATTACACACTATATATAGAAATTA [CACACA_site291]  9.34
20. TATTATAATACTTATTGTACTTTTAGGTTAATTTAT [XGTACX_site995]  9.34
21. GTTTGAATATATCAGGTGCATTTATAATTCATATGA  9.35
22. GCAGCAGCATTTTCAGTGCATTATTATATTGTTCAT [GTGCAC_site9926]  9.39
23. GGAAACCTTTTTTTTACACACAATATATTAAGACTT [CACACA_site4899]  9.42
24. ATTTAGAATGTTCCTACACACCAAATTTAAGTGTGC [CACACA_site7161]  9.45
25. CAAAATGAAAGGAAAAGTACATTTAAATGAATAAAT [XGTACX_site8241]  9.46
26. CCCTTTTTTTTTTAATGTACATATAATTATATATTT [XGTACX_site8568]  9.47
27. AAAAAAAATATATAAACACACATATTTATATACGCA [CACACA_site1631]  9.48
28. AAAGCAAAAGGAAAATAACCAACCCTAATTAACACA [CACACA_negctrl_site530]  9.5
29. TATTTATAGATATATACACACATATACATATTGTTT [CACACA_site7611]  9.52
30. TAGTATTAAATATATACACACATATATACATATAGA [CACACA_site2154]  9.52
31. TATATATCTTTATGCACACACAAAGAAAATTTTCCT [CACACA_site7366]  9.55
32. AAATTAGACTATAATACACACATAAAAAAAAAAAAA [CACACA_site6155]  9.6
33. TTAATTTTTTTTTCTTGTACACACTATTTTATAATT [XGTACX_site8783]  9.6
34. AAAGAAAAAAAAATTACACACATATATTATAGATAT [CACACA_site7495]  9.62
35. AATTGTACGTAGGGGTATAAAAGCTTAAAAATGGGG [CACACA_negctrl_site1392]  9.63
36. ATAAGAAGAAGAAAAACACACATATGTAAATATATA [CACACA_site3138]  9.66
37. TAAACACCCATATAAACACACATACATACATACATA [CACACA_site5383]  9.7
38. AAATAATTCAAAAAAACACACAAATTACAAAATAAA [CACACA_site269]  9.72
39. AGAAATGAAATCCAAAAACGAGGAACCAATAACGCA [CACACA_negctrl_site1758]  9.79
40. GTTGCACAATGTTACACACACAATATATATCGTTAA [CACACA_site1275]  9.92
41. TACATACACAGACACACACACATATAAATATAAATA [CACACA_site7641]  9.95
42. TACATACATACATACACACACACATATATATATATA [CACACA_site42]  9.96
43. AAGGACAACAAACAAACACACACAAAAAAAAAATAA [CACACA_site9263]  9.99
44. AAGGCAAACAAACACACACACATATATACCTATATA [CACACA_site5203]  10
45. ATATTATAGATATACACACACACATGCATGCACATA [CACACA_site6203]  10.1
